Laboratory results from US8119567B2, “Method for control of cyanobacterial algae, mosses, liverworts, hornworts and other bryophytes” (FMC Corporation, priority 2004, dated 2012).

Tested on: Silver Moss (Bryum argenteum)
Experiment: Efficacy test on silver moss in bentgrass turf, scale 1-10 (Example 3)
Type: in vivo
Settings: scale of 1-10 with 1 being the untreated control, rate 1.19 lbs per 1000 ft^2, average of four trials
Protocol: Trials were conducted by spraying 24.4-73.2 mls per 1000 ft^2 of carfentrazone formulated as a 1.9 EW (Quicksilver T&O) onto bentgrass turf that was invaded by silver moss. Carfentrazone formulated as a 1.9 EW was also combined with X-77 Spreader (liquid at 0.25 wt % v/v basis) and sprayed at 24.4-36.6 mls per 1000 ft^2. The bentgrass turf was evaluated periodically after application. Control or efficacy was determined on a scale of 1-10 with 1 being the untreated control. Four trials were conducted.
The results, shown as an average of the four trials, are compared with results observed in the same trials with Terracyte at 8-16 lbs per 1000 ft^2 application, copper sulfate at 1.19 lbs per 1000 ft^2 and a control of no application.

O=S(=O)([O-])[O-].[Cu+2] [Copper Sulfate, copper sulfate]
Efficacy/Control of Silver Moss in Bentgrass Turf (2 days): 1.7
Efficacy/Control of Silver Moss in Bentgrass Turf (14 days): 2.7
Efficacy/Control of Silver Moss in Bentgrass Turf (28 days): 3.3
Efficacy/Control of Silver Moss in Bentgrass Turf (50 days): 6.3
